The record followed here is PubChem BioAssay AID463173 (ICCB-Longwood Screening Facility, Harvard Medical School, 2010).

In all, about 52,000 compounds went through this assay and about 1,700 (3.3%) were called active. No stated cut-off is given here; in the data, active means survival mostly below about 52% (no sharp cut-off); inactive means mostly above about 56%. The list shows a part of the results.

This assay deals with Wild type. Briefly: S. aureus survival, RN4220 and DeltatarO strains – OD600, teichoic acid synthesis inhibitors, primary screen (AID 463173). The settings on record: S. aureus RN4220 wild type/DeltatarO growth, OD600, 18 h, hits give low values, screened at 18.75 µg/mL (by protocol).
As for `CC(=O)Nc1nonc1-c1nnc(SCC(=O)Nc2ccc(C)c(Cl)c2)n1C`, the survival was inactive: 88%.

Regarding `COc1ccc(-c2nc(S(=O)(=O)c3ccc(C)cc3)c(N3CCCCC3)o2)cc1`, the survival is inactive: 63%.

For `Cc1ccc(CNC(=O)CN2C(=O)CC(c3ccc(C)c(C)c3)=Nc3ccccc32)cc1`, the survival was inactive: 64%.

On to `Cc1cc(N(C(=O)c2cnccn2)C(C(=O)NCc2ccccc2)c2cccs2)ccc1-n1cnnn1` (stereo not given), for which the survival is inactive: 113%.

On to `CCCCOC(=O)c1ccc(Nc2ncnc3c2cnn3-c2cccc(C)c2)cc1`, for which the survival was inactive: 88%.

`NS(=O)(=O)c1ccccc1`: the survival was inactive: 100%.

As for `CC(Oc1ccc(Cl)cc1Cl)C(=O)N1CCN(C(=O)c2ccco2)CC1` (stereo not given), the survival is inactive: 123%.

As for `COc1cc(S(=O)(=O)Nc2ccccn2)ccc1Cl`, the survival is inactive: 113%.

As for `Cc1cc(C(C)(C)C)oc1C(=O)N(CC(=O)NC1CCCC1)c1ccc(F)cc1`, the survival is inactive: 114%.

In the case of `Cc1cccc(CN2CCC(CNc3ncnc4onc(-c5ccc(Cl)cc5)c34)CC2)c1`, the survival was inactive: 82%.

Take `COc1ccc(NC(=O)C2CCCN(S(=O)(=O)c3cccc4nonc34)C2)cc1Cl` (stereo not given): the survival was inactive: 103%.

Take `Clc1cccc(-n2cc(-c3ccccc3)c3c(NC4CCCC4)ncnc32)c1`: the survival was inactive: 74%.

On to `COc1ccccc1NC(=O)CSc1nc2c(oc3ccccc32)c(=O)n1Cc1ccco1`, for which the survival is inactive: 70%.

With `Cc1ccc(-c2nnc3c4ccccc4c(C)nn23)cc1NC(=O)c1cccc(Br)c1`, the survival was inactive: 65%.

With `COc1cccc(N2CCN(c3ncnc4c3c(-c3ccccc3)cn4-c3ccc(F)cc3)CC2)c1`, the survival was inactive: 83%.

In the case of `CCCCN(CC)C(=O)CCCn1c(=O)c2cccn2c2ccccc21`, the survival was inactive: 81%.

Regarding `O=C(NCc1cccc(Cl)c1)NCc1noc2ccccc12`, the survival is inactive: 83%.

As to `COc1ccc(CNC(=O)CCNS(=O)(=O)c2ccc3c(c2)CCCC(=O)N3)cc1`, the survival was inactive: 123%.

In the case of `Cc1ccc(Cn2c(CCNC(=O)C(C)C)nc3ccccc32)cc1`, the survival is inactive: 81%.

`Cc1ccc(Cl)cc1N(C)C(=O)C1CCCN(c2ncnc3onc(-c4ccc(F)cc4)c23)C1` (stereo not given): the survival was inactive: 102%.

Consider `COc1ccc(-c2nc(SCC(=O)NCc3ccccc3Cl)n[nH]2)cc1`, for which the survival was inactive: 76%.

Regarding `O=C(CNCc1ccccc1F)Nc1ccc(N2CCCC2)cc1`, the survival was inactive: 123%.

Turning to `CC(C(=O)Nc1ccccc1)N1C(=O)c2ccccc2C1=O` (stereo not given), the survival is inactive: 110%.

For the compound `O=C(Cn1nc(-c2ccc(Cl)cc2)ccc1=O)NCCc1ccccc1`, the survival was inactive: 45%.

As for `CCOC(=O)CCc1c(C)nc2c(c(C)nn2-c2ccc(C)cc2)c1C`, the survival is inactive: 119%.

With `CCC(=O)Nc1cccc(NC(=O)CSc2nnnn2C(C)C)c1`, the survival is inactive: 112%.

Regarding `CC(C)Cn1c(-c2ccc(Cl)cc2)cnc1SCC(=O)N1CCCC1`, the survival is inactive: 132%.

On to `O=C(C1CCC1)N1CCc2cc(S(=O)(=O)NCCc3ccccc3)ccc21`, for which the survival is inactive: 111%.

As for `Cc1nn(-c2ccc(N3CCCC3)nn2)c(C)c1CCC(=O)N1CCN(c2ccccc2F)CC1`, the survival is inactive: 81%.

With `CCCN(Cc1cccs1)C(=O)Nc1cc(C)cc(C)c1`, the survival is inactive: 107%.

On to `CC1CCN(C(=O)c2cc3n(n2)C(C(F)(F)F)CC(c2ccccc2)N3)C(C)C1` (stereo not given), for which the survival is inactive: 123%.

For the compound `CCN(CC)C(=O)Cn1c(=O)n(-c2ccc(Cl)cc2)c(=O)c2c3c(sc21)CCCCC3`, the survival is inactive: 98%.

In the case of `Cc1nn(C)c2c1c(-c1ccccc1)cc(=O)n2Cc1ccc(F)cc1Cl`, the survival is inactive: 69%.

As for `O=S1(=O)CCC(NC2CCCCC2)C1` (stereo not given), the survival was inactive: 95%.

With `CCS(=O)(=O)c1nnnn1-c1ccccc1`, the survival is active: 1%.

`COc1ccc(NC(=O)CC2C(=O)N(c3ccc(OC)cc3)C(=O)N2Cc2ccc(OC)c(OC)c2)cc1` (stereo not given): the survival was inactive: 127%.

Consider `CCOc1ccc(N2CC(NC(=O)Cc3cccs3)CC2=O)cc1` (stereo not given), for which the survival was inactive: 89%.

As to `CCOc1ccc(C(c2nnnn2C(C)C)N2CCN(c3cccc(Cl)c3)CC2)cc1` (stereo not given), the survival was inactive: 102%.

Consider `CCOc1ccc(CN2CCC(C(=O)NCC3CCCO3)CC2)cc1OC` (stereo not given), for which the survival is inactive: 99%.

As to `COc1ccc(-c2nc3ccccc3o2)cc1NC(=O)c1cccc2c(Cl)cccc12`, the survival was inactive: 68%.

With `CCOc1ccc(CCNC(=O)CCn2c(=O)c3cccn3c3ccc(F)cc32)cc1OCC`, the survival is inactive: 71%.

Turning to `CCC(CC)c1nc2ccccc2c(=O)[nH]1`, the survival was inactive: 102%.

On to `CCOc1ccc(NC(=O)CCc2c(C)nc3c4c(C)cc(C)nc4nn3c2C)cc1`, for which the survival is inactive: 130%.

For the compound `COCC(=O)Nc1nc(-c2ccccc2)cs1`, the survival was inactive: 115%.

On to `Cc1ccc(C)c(CSc2cn(CC(=O)N3CCCC3)c3ccccc23)c1`, for which the survival was inactive: 77%.

Regarding `COc1ccc2cc(-c3nc(-c4ccc(N(C)C)cc4)no3)c(=O)oc2c1`, the survival was inactive: 99%.

Take `CN(Cc1ccccc1)c1ccc2cc(S(=O)(=O)N3CCCCC3)ccc2n1`: the survival was inactive: 57%.

Take `COc1ccc(N2CCN(C(=O)c3ccc4c(c3)CCN4S(=O)(=O)c3ccccc3)CC2)cc1`: the survival is inactive: 103%.

Consider `O=C(c1ccccc1)N1CCC(O)(c2cccnc2)CC1`, for which the survival is inactive: 110%.

On to `COc1cc(NC(=O)CSc2cc(=O)n(C)c3ccccc23)cc(OC)c1OC`, for which the survival is inactive: 81%.

`CC(NCc1ccc2c(c1)n(C)c(=O)n2C)c1ccccc1` (stereo not given): the survival is inactive: 86%.

With `Cc1c(C(=O)N(C)Cc2ccccc2)sc2nc(-c3ccc(F)cc3)cn12`, the survival was inactive: 97%.

Consider `COc1cccc(-c2cc(C(=O)NCc3ccccc3)no2)c1`, for which the survival is inactive: 85%.

As to `Cc1cc(C)n2nc(CNC(=O)c3cccc(N(C)C)c3)nc2n1`, the survival was inactive: 120%.

In the case of `Cc1ccc(-c2cn3c(n2)sc2cc(C(=O)NC4CCCCCC4)ccc23)cc1`, the survival is inactive: 113%.

On to `COCCCNC(=O)C1CCN(Cc2cc3ccccc3n2Cc2cccc(Cl)c2)CC1`, for which the survival was inactive: 72%.

`Cc1noc2ncnc(NCCc3ccccc3)c12`: the survival is inactive: 74%.

For `Cc1ccc(NS(=O)(=O)c2ccc3nc(-c4ccccc4)[nH]c3c2)cc1Cl`, the survival was active: 1%.

As to `CCn1cc(C(=O)N(C)c2cc(C)ccc2C)c2cc(OC)c(OC)cc2c1=O`, the survival is inactive: 149%.

For the compound `O=S(=O)(Nc1nc2n(n1)C(c1ccc(F)cc1)C=C(c1ccc(Cl)cc1)N2)c1ccccc1` (stereo not given), the survival was inactive: 57%.
